Laboratory results from publication PMC9911399, “Two distinct binding modes provide the RNA-binding protein RbFox with extraordinary sequence specificity”.
Positions count from the first letter of the chain named. Some of the results follow.

T1: RBFOX1 RRM RbFoxmut (Fox-RRM*) (Homo sapiens, UniProt Q9NWB1 109-208, R118D;E147R;N151S;E152T)
T1 sequence: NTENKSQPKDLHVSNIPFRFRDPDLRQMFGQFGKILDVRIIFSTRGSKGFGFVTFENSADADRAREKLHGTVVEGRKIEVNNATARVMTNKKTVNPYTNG

B1: CAUCCUG (DNA:RNA)
RNA: GGGAGACCGGAAUUCAGAUUGUCCCAUCCUGUUAAAUCCCGUCGUAGCCACCA
DNA 1: CAATCTGAATTCCGGTCTCCC
DNA 2: TGGTGGCTACGACGGGATT
B2: CUCCUUC (DNA:RNA)
RNA: B1 RNA with A26U, U27C, C29U, G31C
DNA 1: CAATCTGAATTCCGGTCTCCC
DNA 2: TGGTGGCTACGACGGGATT
B3: GUCGCAG (DNA:RNA)
RNA: B1 RNA with C25G, A26U, U27C, C28G, U30A
DNA 1: CAATCTGAATTCCGGTCTCCC
DNA 2: TGGTGGCTACGACGGGATT
B4: GGGUAAG (DNA:RNA)
RNA: B1 RNA with C25G, A26G, U27G, C28U, C29A, U30A
DNA 1: CAATCTGAATTCCGGTCTCCC
DNA 2: TGGTGGCTACGACGGGATT
B5: UCGACAG (DNA:RNA)
RNA: B1 RNA with C25U, A26C, U27G, C28A, U30A
DNA 1: CAATCTGAATTCCGGTCTCCC
DNA 2: TGGTGGCTACGACGGGATT
B6: AGUGAUA (DNA:RNA)
RNA: B1 RNA with C25A, A26G, C28G, C29A, G31A
DNA 1: CAATCTGAATTCCGGTCTCCC
DNA 2: TGGTGGCTACGACGGGATT
B7: CUUGCGC (DNA:RNA)
RNA: B1 RNA with A26U, C28G, U30G, G31C
DNA 1: CAATCTGAATTCCGGTCTCCC
DNA 2: TGGTGGCTACGACGGGATT
B8: UGUUGAA (DNA:RNA)
RNA: B1 RNA with C25U, A26G, C28U, C29G, U30A, G31A
DNA 1: CAATCTGAATTCCGGTCTCCC
DNA 2: TGGTGGCTACGACGGGATT
B9: UUUCGGC (DNA:RNA)
RNA: B1 RNA with C25U, A26U, C29G, U30G, G31C
DNA 1: CAATCTGAATTCCGGTCTCCC
DNA 2: TGGTGGCTACGACGGGATT

biological target: T1, RBFOX1 RRM RbFoxmut (Fox-RRM*); test: EMSA; HiTS-Eq, 1 nM pool, 10 min; buffer printed only for the single-RNA assays: 10 mM Tris pH 7.5, 150 mM NaCl, 3.4 mM EDTA, 0.001% NP-40, 30 C; conditions: tags: His6 N-terminal (pET28a); label: 5' 32P
How it was run: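 Relative association constants, normalised to the cognate motif, were derived by comparing read counts of each RNA species with those of the control reaction. The RNA sequenced was the free fraction, separated by 8% native PAGE after a 10 min equilibration in 50 µL of 1 nM 5′-radiolabelled RNA (7 randomized nucleotides) with increasing concentrations of purified wild-type or mutant RbFox RRM.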

Row | Binder | binding signal
1 | B1 | 0.102 KA relative to UGCAUGU
2 | B2 | 0.0516 KA relative to UGCAUGU
3 | B3 | 0.104 KA relative to UGCAUGU
4 | B4 | 0.116 KA relative to UGCAUGU
5 | B5 | 0.0676 KA relative to UGCAUGU
6 | B6 | 0.133 KA relative to UGCAUGU
7 | B7 | 0.107 KA relative to UGCAUGU
8 | B8 | 0.131 KA relative to UGCAUGU
9 | B9 | 0.104 KA relative to UGCAUGU
